± gives the standard deviation of the averaged measurements. Whole data set: some 33,000 sequences, median “E-score (dimensionless, -0.5 to 0.5)” near -0.049, cut for the highest 2% near 0.37. This is one part of the list.
tested on: T1, PmTbr T-box DNA-binding domain (GST fusion); assay: PBM E-score of 8-mer (E-score (dimensionless, -0.5 to 0.5)); Tbr is Tbrain of the sea star Patiria miniata (Pm) or the sea urchin Strongylocentrotus purpuratus (Sp); higher = stronger binding preference; most listed sequences are background and not binding sites; conditions: the construct has about 5 more residues each side
T1 sequence: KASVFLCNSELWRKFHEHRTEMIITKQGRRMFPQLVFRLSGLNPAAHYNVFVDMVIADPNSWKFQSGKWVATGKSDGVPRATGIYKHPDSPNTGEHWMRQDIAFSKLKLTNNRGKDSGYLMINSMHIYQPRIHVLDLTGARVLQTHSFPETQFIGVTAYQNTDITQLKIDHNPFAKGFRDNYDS
Summary of the method: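 Universal Agilent oligonucleotide arrays, made double-stranded by primer extension, were incubated with 200 nM GST-fused Tbr T-box DNA-binding domain in PBS (pH 7.5). The protein was expressed in BL21 E. coli at 20 °C and purified by glutathione affinity chromatography. After scanning and quantification, the Universal PBM Analysis Suite assigned an enrichment E-score to each ungapped 8-mer, averaged over duplicate arrays.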

| Sequence | PBM E-score of 8-mer |
| --- | --- |
| GGCAAGAA | -0.135 ± 0.068 |
| GAGCAGGA | -0.0811 ± 0.049 |
| GATACGCA | -0.0323 ± 0.072 |
| GTTCTTTA | -0.22 ± 0.059 |
| TAAGAACA | 0.045 ± 0.043 |
| ACACAGTG | 0.229 ± 0.005 |
| GATCAACC | -0.118 ± 0.014 |
| ATTGAGGA | -0.293 ± 0.072 |
| AAGGGTGG | 0.1889 ± 0.001 |
| AGCCACCA | -0.0526 ± 0.037 |
| ATATATAG | -0.0935 ± 0.0052 |
| TCTAATAA | -0.106 ± 0.019 |
| ACGTATGC | -0.0237 ± 0.041 |
| CTGGGATA | -0.184 ± 0.04 |
| AATGATGA | -0.167 ± 0.027 |
| TCGTTTAA | -0.116 ± 0.039 |
| AGAATTTA | -0.153 ± 0.058 |
| TCGCGACA | 0.331 ± 0.0039 |
| AAGCATGA | 0.00125 ± 0.081 |
| CCAGGGGA | -0.207 ± 0.064 |
| CTTACCGA | -0.202 ± 0.02 |
| GGCGATAC | 0.115 ± 0.047 |
| TCGCAAAA | 0.152 ± 0.048 |
| TCGCTCAA | -0.0477 ± 0.049 |

| Sequence | PBM E-score of 8-mer |
| --- | --- |
| ATATCATC | -0.0357 ± 0.061 |
| CTAAACCA | 0.00654 ± 0.038 |
| AATGTGAA | 0.215 ± 0.0047 |
| ACGGATTA | -0.183 ± 0.026 |
| ACTGCGCT | 0.0435 ± 0.029 |
| TCGTACCA | -0.0293 ± 0.089 |
| CCAGTCTC | -0.116 ± 0.032 |
| CCACCACG | -0.00839 ± 0.13 |
| GCCAAGCC | -0.3 ± 0.033 |
| AACCTCAC | 0.219 ± 0.015 |
| ACTCTGGA | -0.282 ± 0.032 |
| CCTAGAAG | -0.116 ± 0.024 |
| CTGAATTC | -0.283 ± 0.015 |
| ATGTTCCA | -0.118 ± 0.015 |
| AGGCTTCA | -0.0816 ± 0.048 |
| ACTGGAGG | 0.0506 ± 0.064 |
| AGATAGTG | 0.223 ± 0.056 |
| GCTACCAA | 0.108 ± 0.054 |
| GCCGCGCC | 0.061 ± 0.018 |
| AAAGCCTG | -0.0728 ± 0.022 |
| GCGTTGCA | 0.242 ± 0.035 |
| GCCTCGAA | -0.213 ± 0.0074 |
| TAGGCCTA | -0.0849 ± 0.041 |
| ATAGGGAC | -0.00492 ± 0.035 |

| Sequence | PBM E-score of 8-mer |
| --- | --- |
| AGACTGTA | -0.104 ± 0.069 |
| ATCACGTC | 0.153 ± 0.0094 |
| AATGAAAA | -0.0587 ± 0.014 |
| AATGGTGG | -0.00471 ± 0.038 |
| ACTGTCGG | 0.176 ± 0.014 |
| TCCTGAAA | -0.213 ± 0.065 |
| AGGTTATC | -0.0427 ± 0.013 |
| CCGTCCAC | -0.204 ± 0.00076 |
| CTACGATA | 0.168 ± 0.027 |
| GTGGCGCA | 0.118 ± 0.017 |
| ATAAAAGA | -0.188 ± 0.0033 |
| GCTCTAAA | -0.0297 ± 0.022 |
| CCTATTCC | -0.125 ± 0.1 |
| GCGTCGGA | 0.011 ± 0.028 |
| AGATCGGG | -0.126 ± 0.023 |
| AGGTTCGA | -0.154 ± 0.022 |
| AATGATTG | 0.0511 ± 0.14 |
| ACAAAGCC | -0.0874 ± 0.056 |
| TAAACACA | 0.145 ± 0.0066 |
| AGGATCCG | -0.392 ± 0.04 |
| ATGTCAAC | 0.171 ± 0.006 |
| AGTCGGAA | -0.193 ± 0.062 |
| TCCAGCAA | -0.268 ± 0.033 |
| GGGTGACA | 0.4543 ± 0.0023 |

| Sequence | PBM E-score of 8-mer |
| --- | --- |
| CGGTTTAG | -0.0233 ± 0.07 |
| AGCAGAAT | -0.00022 ± 0.075 |
| GACGGACC | -0.128 ± 0.011 |
| AGGGAACT | -0.0419 ± 0.0039 |
| GCTATGGA | -0.263 ± 0.018 |
| ATGAATAA | -0.223 ± 0.026 |
| CGCGCATC | 0.0691 ± 0.012 |
| CTCCTTCC | -0.0763 ± 0.059 |
| ACGCAGAT | -0.171 ± 0.012 |
| ATCTGGGA | -0.183 ± 0.012 |
| CAAGGGCG | 0.0415 ± 0.012 |
| CAAGATTC | -0.188 ± 0.023 |
| ACGCTTGG | -0.00775 ± 0.031 |
| CTGCTTGA | -0.167 ± 0.086 |
| GAATCAGA | -0.119 ± 0.013 |
| AGATAGAC | -0.333 ± 0.0091 |
| ATATATGC | -0.23 ± 0.057 |
| AGCTAACT | -0.2624 ± 0.0013 |
| ACAGTATC | 0.11 ± 0.029 |
| AGTCAAGC | -0.29 ± 0.022 |
| ACGCGCCA | 0.245 ± 0.0088 |
| CAAAGGAC | -0.172 ± 0.034 |

From the supplement of paper PMC4166925
